In the BET-seq Pho4 binding data (Le et al. 2018):
This is one part of the list. The energies were worked out here from pooled read counts, against the library average; single values are noisy.

The sequences below were run against T1, Pho4 (S. cerevisiae) (UniProt P07270) (assay: relative binding free energy (BET-seq); higher = weaker binding). Settings: reference: library average.
T1 sequence: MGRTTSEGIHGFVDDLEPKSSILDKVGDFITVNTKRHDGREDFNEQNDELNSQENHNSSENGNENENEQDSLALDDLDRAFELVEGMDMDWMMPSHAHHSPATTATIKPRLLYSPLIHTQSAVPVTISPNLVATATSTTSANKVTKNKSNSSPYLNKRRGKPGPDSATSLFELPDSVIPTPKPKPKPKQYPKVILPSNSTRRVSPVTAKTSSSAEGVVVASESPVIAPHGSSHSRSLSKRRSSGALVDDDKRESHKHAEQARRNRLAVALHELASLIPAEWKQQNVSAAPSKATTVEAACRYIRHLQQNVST

Sequence	relative binding free energy
TGTTTCACGTGGTACG	0.21 kcal/mol
TGTATCACGTGTCAGG	0.16 kcal/mol
TATATCACGTGTAGTG	0.09 kcal/mol
GGGTTCACGTGGAATG	0.35 kcal/mol
GGCAGCACGTGGTCGT	-0.01 kcal/mol
GGGTGCACGTGAGTGG	0.31 kcal/mol
GTGCTCACGTGGATGG	0.21 kcal/mol
GCGGTCACGTGTTTTG	0.24 kcal/mol
GGTGTCACGTGTACGG	0.06 kcal/mol
TGCGCCACGTGGGGAG	-0.31 kcal/mol
TAAGACACGTGTTATT	-0.03 kcal/mol
GTGAGCACGTGTGGCT	-0.09 kcal/mol
AGGTGCACGTGCGGAT	-0.14 kcal/mol
GGGTTCACGTGGATAA	0.41 kcal/mol
GGATGCACGTGTGAGC	0 kcal/mol
TGCAGCACGTGGAGGG	-0.18 kcal/mol
TAGAGCACGTGTTGTA	-0.04 kcal/mol
AGAGACACGTGCGGGG	-0.06 kcal/mol
TAAGTCACGTGAATTT	0.29 kcal/mol
TGTTCCACGTGAGGCT	0.22 kcal/mol
TGAGGCACGTGTTTAT	-0.1 kcal/mol
AGAGTCACGTGTGTTA	0.13 kcal/mol
ACAGGCACGTGCGGTT	-0.15 kcal/mol

Sequence	relative binding free energy
GGGGCCACGTGGGCGT	-0.36 kcal/mol
GCTATCACGTGGGGAT	0.07 kcal/mol
TCGTGCACGTGGTGCG	-0.12 kcal/mol
AGAAGCACGTGGTGAG	-0.14 kcal/mol
GCGGCCACGTGAAGGT	0.25 kcal/mol
TGGGCCACGTGCTGTG	-0.07 kcal/mol
CTTGGCACGTGTGTTC	-0.04 kcal/mol
GAGTGCACGTGGATAT	0.02 kcal/mol
GTGTGCACGTGGTTAG	0.03 kcal/mol
TGTCGCACGTGGTCTG	-0.14 kcal/mol
ATGGACACGTGGAGGA	0.04 kcal/mol
ACTGTCACGTGTTGTT	0.1 kcal/mol
GTTGGCACGTGATCTA	0.03 kcal/mol
TGGGTCACGTGCGAAT	0.13 kcal/mol
ATATACACGTGAGGGG	0.11 kcal/mol
ATAGTCACGTGTATCG	0.12 kcal/mol
CGAGACACGTGGGTTG	-0.23 kcal/mol
AGTGACACGTGAAATG	0.13 kcal/mol
CAGTTCACGTGTATTT	0.29 kcal/mol
GGATTCACGTGGCGAG	0.22 kcal/mol
CGGGACACGTGCGGTG	-0.13 kcal/mol
AAGGTCACGTGATGTA	0.25 kcal/mol
TTGTTCACGTGTAGGA	0.26 kcal/mol

Sequence	relative binding free energy
ATGTTCACGTGAGGAG	0.27 kcal/mol
ATTTGCACGTGTAGGA	0.03 kcal/mol
TGTACCACGTGGAGTG	-0.07 kcal/mol
GGTGCCACGTGGAGTT	0.01 kcal/mol
AGTTTCACGTGTGATC	0.31 kcal/mol
GATTGCACGTGAATTG	0.34 kcal/mol
GTTGGCACGTGTATCG	0.13 kcal/mol
GCATGCACGTGGCTTG	0.01 kcal/mol
TTGCGCACGTGAATTA	0.17 kcal/mol
GATAGCACGTGTCGGG	0.05 kcal/mol
AGGTTCACGTGATGAT	0.25 kcal/mol
TGATTCACGTGCAGGG	0.14 kcal/mol
ATCTTCACGTGTGTCT	0.24 kcal/mol
TAAGACACGTGAGTGT	0.17 kcal/mol
GCGGTCACGTGTGCTT	0.18 kcal/mol
GGCGGCACGTGTGCGA	-0.02 kcal/mol
TAGTGCACGTGAATGT	0.22 kcal/mol
GGATGCACGTGGTGTT	0 kcal/mol
TTCAACACGTGTGGAG	0.11 kcal/mol
GTATCCACGTGGGGTA	0.01 kcal/mol
GGGCTCACGTGCGTTT	0.23 kcal/mol
TGTTCCACGTGGAGTA	0.04 kcal/mol
GTTACCACGTGGGTTA	-0.16 kcal/mol

Sequence	relative binding free energy
GTTGTCACGTGGAACG	0.13 kcal/mol
GGATGCACGTGTGCGA	-0.13 kcal/mol
GTGCGCACGTGTAGTT	0.01 kcal/mol
TTGTCCACGTGGGATG	-0.09 kcal/mol
AAGATCACGTGGTGTT	0.04 kcal/mol
GATTCCACGTGTTGTT	0.08 kcal/mol
GTGCACACGTGTTGAG	0.05 kcal/mol
GTGGGCACGTGTCGGA	0.05 kcal/mol
TGTGTCACGTGTGATT	0.24 kcal/mol
ATAGCCACGTGGTTTA	-0.05 kcal/mol
ATTTGCACGTGTTGAA	0.05 kcal/mol
GTCGGCACGTGGGTCT	-0.27 kcal/mol
GTAGTCACGTGCTTGT	-0.02 kcal/mol
TGTAGCACGTGAATGT	0.22 kcal/mol
GTGTGCACGTGGGGGT	-0.1 kcal/mol
GGTTGCACGTGACGTA	0.04 kcal/mol
CCATTCACGTGGTGTG	0.33 kcal/mol
TGAGGCACGTGACGCG	0.12 kcal/mol
GTAACCACGTGTGTTT	-0.03 kcal/mol
TGGAACACGTGGGAAA	0.25 kcal/mol
GGCTCCACGTGGTGAG	0.08 kcal/mol
TACGGCACGTGGAGGT	-0.14 kcal/mol
ATTATCACGTGTCGGG	0.2 kcal/mol

Sequence	relative binding free energy
ATGTGCACGTGTATGC	-0.11 kcal/mol
TGCGGCACGTGCAGGG	-0.06 kcal/mol
TTATACACGTGAATTT	0.25 kcal/mol
TTTGTCACGTGGATAA	0.1 kcal/mol
AGACGCACGTGTATGG	0 kcal/mol
TGGAGCACGTGTATGA	-0.13 kcal/mol
AGCTGCACGTGGTTGT	-0.11 kcal/mol
TAATTCACGTGTGTGA	0.35 kcal/mol
GTTGGCACGTGAGAGC	0.19 kcal/mol
GTTTTCACGTGCCGAG	0.38 kcal/mol
TAGTGCACGTGTTTTC	0.1 kcal/mol
GAGCGCACGTGAGGTA	0.22 kcal/mol
TGTATCACGTGTACTT	0.01 kcal/mol
CGTTACACGTGTATGG	0 kcal/mol
TTATTCACGTGGAGCG	0.24 kcal/mol
AAGGTCACGTGAGTAA	0.33 kcal/mol
GAAGACACGTGGTGTC	0.1 kcal/mol
CGTTGCACGTGATTAT	0.06 kcal/mol
CGAAGCACGTGGGAGG	-0.21 kcal/mol
AGGGTCACGTGGGTGG	0.06 kcal/mol
GGCGTCACGTGGGGTC	0.01 kcal/mol
ATGGTCACGTGGTCTA	0.01 kcal/mol
GTTTTCACGTGAGCCT	0.37 kcal/mol
